The record followed here is patent EP4814006A2 (NAVIGO PROTEINS GMBH, dated 2026).

This assay concerns the target T1, VEGF (vascular endothelial growth factor) (human, UniProt P15692-4 27-191, limits assumed).
T1 construct: also called VEGF-A
T1 sequence (looked up): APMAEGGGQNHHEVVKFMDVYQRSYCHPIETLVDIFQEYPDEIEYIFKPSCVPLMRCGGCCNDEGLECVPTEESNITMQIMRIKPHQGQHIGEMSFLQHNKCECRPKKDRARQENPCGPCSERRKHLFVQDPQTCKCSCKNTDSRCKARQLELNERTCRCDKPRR
The assay is described as follows: ELISA per the heading of Example 3; the format of the VEGF assay is not described.

In general, EC50 refers to the concentration at which the effect is half-maximal.

B1: Fusion protein SEQ ID NO: 5 (Aflibercept fused through a 15 amino acid GS-linker to the hyaluronic acid binding protein of SEQ ID NO: 1) (Fc fusion)
chain: SDTGRPFVEMYSEIPEIIHMTEGRELVIPCRVTSPNITVTLKKFPLDTLIPDGKRIIWDSRKGFIISNATYKEIGLLTCEATVNGHLYKTNYLTHRQTNTIIDVVLSPSHGIELSVGEKLVLNCTARTELNVGIDFNWEYPSSKHQHKKLVNRDLKTQSGSEMKKFLSTLTIDGVTRSDQGLYTCAASSGLMTKKNSTFVRVHEK[sequence of human IgG1 Fc not given][sequence of about 200 residues not given]
notes: It forms a homodimer and was expressed in HEK293 cells
For B1, the EC50 is less than 1 nM.

B2: Fusion protein SEQ ID NO: 6 (Aflibercept fused through a 15 amino acid GS-linker to the hyaluronic acid binding protein of SEQ ID NO: 2) (Fc fusion)
chain: SDTGRPFVEMYSEIPEIIHMTEGRELVIPCRVTSPNITVTLKKFPLDTLIPDGKRIIWDSRKGFIISNATYKEIGLLTCEATVNGHLYKTNYLTHRQTNTIIDVVLSPSHGIELSVGEKLVLNCTARTELNVGIDFNWEYPSSKHQHKKLVNRDLKTQSGSEMKKFLSTLTIDGVTRSDQGLYTCAASSGLMTKKNSTFVRVHEK[sequence of human IgG1 Fc not given][sequence of about 200 residues not given]
notes: as for B1
In turn, B2 displayed a concentration for a half-maximal effect (EC50) of less than 1 nM.
